Results taken from PubChem BioAssay AID360 (National Center for Advancing Translational Sciences (NCATS), 2006).
The campaign covered roughly 48,000 compounds. About 550 (1.1%) were called active. Another 4% or so got no clear call; they are omitted. No stated cut-off is given here; in the data, active means potency below about 15 µM; inconclusive means mostly about 16 µM to 33 µM; inactive means weaker than that. The list shows a part of the results.

These compounds were tested against Lysosomal acid glucosylceramidase (Homo sapiens) (UniProt P04062) (assay: Glucocerebrosidase). Settings: purified enzyme, resorufin glucoside fluorescence (screen aimed at inhibitors), 20 min.
Chain of UniProt P04062 (P04062 whole entry, looked up): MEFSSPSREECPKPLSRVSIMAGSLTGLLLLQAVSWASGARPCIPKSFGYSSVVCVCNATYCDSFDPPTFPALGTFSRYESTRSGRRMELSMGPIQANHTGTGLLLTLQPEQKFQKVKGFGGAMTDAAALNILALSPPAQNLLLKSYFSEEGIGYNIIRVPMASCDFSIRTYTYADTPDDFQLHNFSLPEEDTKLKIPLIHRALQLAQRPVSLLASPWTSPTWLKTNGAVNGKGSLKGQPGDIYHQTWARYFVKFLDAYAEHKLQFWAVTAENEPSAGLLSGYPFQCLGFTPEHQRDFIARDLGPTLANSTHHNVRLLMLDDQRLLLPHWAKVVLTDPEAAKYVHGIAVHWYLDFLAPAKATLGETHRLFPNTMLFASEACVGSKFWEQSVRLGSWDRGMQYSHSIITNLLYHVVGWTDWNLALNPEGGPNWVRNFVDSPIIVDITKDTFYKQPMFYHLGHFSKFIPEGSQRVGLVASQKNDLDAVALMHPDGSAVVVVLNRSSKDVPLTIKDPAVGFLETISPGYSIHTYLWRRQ
From the text: NCGC Assay Overview: Beta-glucocerebrosidase catalyzes the hydrolysis of beta-glucocerebroside to glucose and ceramide. The inherited deficiency of beta-glucocerebrosidase results in Gaucher disease, which is characterized by a wide variety of symptoms including hepatosplenomegaly, anemia, thrombocytopenia, bony lesions and bone marrow infiltration with characteristic storage cells, known as Gaucher cells. There are also forms of the disorder affecting the central nervous system. Patients with the same genotypes can manifest with diverse clinical presentations and it is believed that improper folding and trafficking of beta-glucocerbrosidase may contribute to the phenotypes observed. Low molecular weight molecules, acting as chaperones, may potentially restore trafficking of misfolded beta-glucocerebrosidase from the endoplasmic reticulum to the lysosomes, thereby enhancing functional lysosomal beta-glucocerebrosidase activity. Using normal beta-glucocerebrosidase, an assay was developed to screen for small molecule inhibitors that could potentially act as molecular chaperones on the mutant forms [developed with NIH investigator Dr. Ellen Sidransky's laboratory]. Two pro-fluorescent substrates were chosen for two screens against a small molecule library. One beta-glucocerebrosidase assay used Resorufin beta-D-Glucopyranoside (Marker Gene Technology Inc.), generating a red fluorescent product. The second assay used Fluorescein di-beta-D-Glucopyranoside, generating a blue fluorescent product. […] The IC50 values of Conduritol B Epoxide, a known glucocerebrosidase inhibitor, were determined to be 87.5 uM and 117 uM, respectively. The use of two difference pro-fluorescent substrates in the screens helped to eliminate false positives. All compounds were screened in a titration series resulting in AC50s (e.g., IC50s or EC50s).
NCGC Assay Protocol Summary: Both enzyme and substrate were diluted in buffer composed of 50mM citric acid/KH2PO4, 10mM sodium taurocholate and 0.01% tween-20 at pH 5.9. The final concentration of the enzyme was 0.2 nM in both assays. The compound library was titrated in 7 to 15 concentrations for the primary screens with a final concentration ranging from 0.6 nM to 50 uM. This particular assay protocol is for the "red" substrate, and it was performed in 1536-well plate format as follows: Red fluorescence substrate assay: 2 uL enzyme 23 nL compound 1 uL substrate (final concentration of 30 uM) Incubate at room temperature (RT) for 20 minutes Read the plate in Viewlux plate reader (Ex=548(7) and Em=600(10)).
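Further: the screen sought inhibitors.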
Potency means the concentration at half of the fitted maximal effect.

Potency, inactive:
Cc1cc(C)c2cc(CN(CCO)Cc3nnnn3Cc3ccccc3)c(=O)[nH]c2c1 > 76.9 µM
CCN(CC)CCNC(=O)c1ccc2c(c1)ncn2C1CCCCC1 > 76.9 µM
O=C(NC1CCCCC1)c1cc2nc3c(c(C(F)(F)F)n2n1)CCCC3 > 76.9 µM
COCCNC(=O)CCSCc1ccccc1F > 76.9 µM
O=C(COC(=O)c1ccco1)Nc1nc2ccccc2s1 > 76.9 µM
O=C(CN1C(=O)NC2(CCCCCCC2)C1=O)N1CCOCC1
Cn1cccc1C(C(=O)NC1CCCCC1)N(C(=O)Cc1cccs1)c1ccc2c(c1)OCO2 (stereo not drawn) > 76.9 µM
COc1ccc(C2C(C(=O)c3sc(C)nc3C)=C(O)C(=O)N2CCCn2ccnc2)cc1 (stereo not drawn) > 76.9 µM
CCOc1cc2[nH]c(=O)n(CC3CCC(C(=O)NCCCOC)CC3)c(=O)c2cc1OCC (stereo not drawn) > 76.9 µM
COc1cc(C(=O)OCC(=O)NC2CCCC2)cc(NC(=O)c2ccco2)c1OC > 76.9 µM
O=C(CSc1ccccc1)Nc1ccncc1 > 76.9 µM
CCCSc1nnc(CN2CCOCC2)n1C > 76.9 µM
c1nc(NCC2(N3CCOCC3)CCCCC2)c2ccsc2n1 > 76.9 µM
COc1ccc(N2CC(C(=O)Nc3ncccc3C)CC2=O)cc1 (stereo not drawn) > 76.9 µM
N#CCCCCN1c2cccc3cccc(c23)S1(=O)=O > 76.9 µM
O=C(c1ccc2ccccc2n1)N1CCN(c2ccccc2)CC1 > 76.9 µM
CC(C)(C)N(Cc1cc2ccccc2[nH]c1=O)C(=O)c1cccnc1 > 76.9 µM
O=C(CCN1CCCCC1)Nn1c(=S)[nH]c2ccccc2c1=O > 76.9 µM
CCOC(=O)c1c(NC(=O)COC(=O)Cn2cnc3ccccc32)sc(C)c1C > 76.9 µM
O=C(NCc1ccc(F)cc1)c1c(O)c2cccc3c2n(c1=O)CCC3 > 76.9 µM
Nc1c(C(=O)NCc2ccco2)nnn1-c1ccccc1 > 76.9 µM
COc1ccc(C(=O)N2CCN(Cc3cc(OC)c(O)c(OC)c3)CC2)cc1OC > 76.9 µM
CCNc1oc(COc2ccccc2F)nc1C#N > 76.9 µM
Cc1cc(C)n2nc(Nc3ccccc3)cc2n1 > 76.9 µM
CCOC(=O)c1cc(C)n(CCCN2CCOCC2)c1C > 76.9 µM
CCCc1[nH]nc2c1C(c1ccc(OC(=O)N3CCOCC3)c(OC)c1)C(C#N)=C(N)O2 (stereo not drawn) > 76.9 µM
CCOC(=O)C1CCCN(C(=O)c2cn(C)c(=O)c3cc(OC)c(OC)cc23)C1 (stereo not drawn) > 76.9 µM
COc1ccc(CC(=O)Nc2ccc(-c3noc(COc4ccccc4C)n3)cc2)cc1 > 76.9 µM
NC(=O)CSc1nnnn1-c1ccc(OC(F)(F)F)cc1 > 76.9 µM
O=C(COC(=O)c1cc(S(=O)(=O)N2CCOCC2)cs1)c1ccccc1 > 76.9 µM
CCOC(=O)Cc1nnc(NC(=O)Nc2ccccc2)s1 > 76.9 µM
O=C(OCC(O)C(O)COC(=O)c1ccccc1)c1ccccc1 (stereo not drawn) > 76.9 µM
O=C(NCc1n[nH]c(=S)n1-c1ccc(F)cc1)c1ccc(S(=O)(=O)N2CCCC2)cc1 > 76.9 µM
COCCN1C(=O)C(=O)/C(=C(/O)c2cccc(S(=O)(=O)N(C)C)c2)C12C(=O)N(C)c1ccccc12 (stereo not drawn) > 76.9 µM
Cc1ccc(CNC(=O)CCCOc2cc(=O)n(C)c3ccccc23)o1 > 76.9 µM
Cc1ccccc1Nc1nc(N)nc(COC(=O)c2cccn2C)n1 > 76.9 µM
Cc1ccc(S(=O)(=O)NC(C(=O)OCC(=O)NC(=O)c2cccn2C)C(C)C)cc1 (stereo not drawn) > 76.9 µM
COC(=O)C1=C(C)NC2=C(C(=O)c3ccccc32)C1c1ccc(-c2ccc(C(=O)O)cc2)o1 (stereo not drawn) > 76.9 µM
CCCCNC(=O)c1nn(-c2ccccc2OC)c(=O)c2ccccc12 > 76.9 µM
Cc1nnc(SCC(=O)Nc2cc(C(F)(F)F)ccc2N2CCOCC2)o1 > 76.9 µM
CCN1CCCC1CN(Cc1cc2cc(C)cc(C)c2[nH]c1=O)C(=O)Nc1ccccc1OC (stereo not drawn) > 76.9 µM
CCN(Cc1nc2ccccc2c(=O)[nH]1)Cc1nc2cc(OC)c(OC)cc2c(=O)[nH]1 > 76.9 µM
CC(=O)c1cc2c(=O)c3cc(C)ccc3oc2nc1C > 76.9 µM
COc1ccc(CCNC(=O)Cn2cnc3c(cnn3-c3ccccc3Cl)c2=O)cc1OC > 76.9 µM
CC(=O)OC1COC(n2ccc3ccccc32)C(OC(C)=O)C1OC(C)=O (stereo not drawn) > 76.9 µM
O=C(NCc1ccc2c(c1)OCO2)c1cccnc1 > 76.9 µM
O=C(Cc1cccs1)NCc1ccc2c(c1)OCO2 > 76.9 µM
Cc1ccc(Cn2c(CN(C)Cc3ccccc3)nc3c2c(=O)n(C)c(=O)n3C)cc1 > 76.9 µM
N#CC1=C(N)Oc2c(oc(CO)cc2=O)C12C(=O)Nc1ccc(Cl)cc12 (stereo not drawn) > 76.9 µM
COc1ccc(N(CC(=O)Nc2cc(C)ccc2OC)S(=O)(=O)c2c(C)noc2C)cc1 > 76.9 µM
CC1(C)Cc2cccc(OCC(O)CNCc3ccccn3)c2O1 (stereo not drawn) > 76.9 µM
CCC(=O)c1ccc(OCC(O)CN2CCOCC2)cc1 (stereo not drawn) > 76.9 µM
CCn1cc(C(=O)NCc2ccco2)c2cc(OC)c(OC)cc2c1=O > 76.9 µM
CCOc1ccc(OCC)c(NC(=O)C2CCCN(c3ncccn3)C2)c1 (stereo not drawn) > 76.9 µM
CC1(c2ccccc2)NC(=O)N(CCN2C(=O)c3ccccc3C2=O)C1=O (stereo not drawn) > 76.9 µM
CCN(CC)S(=O)(=O)c1ccc2nnn(OCC(=O)Nc3cccc(C#N)c3)c2c1
COc1ccc(OCCSc2nnc(-c3ccccc3)n2N)cc1 > 76.9 µM
CCN(C(=O)Cc1cccs1)c1nnc(-c2cc(OC)c(OC)c(OC)c2)s1 > 76.9 µM
CCS(=O)(=O)Nc1ccc(C(=O)OC)cc1 > 76.9 µM
CCCOc1ccc(NC(=O)C2CC(=O)N3CCCN=C3S2)cc1 (stereo not drawn) > 76.9 µM
O=C(CSc1nc2cc3c(cc2c(=O)n1CCC1=CCCCC1)OCO3)NCc1ccco1 > 76.9 µM
CCNC(=O)N1C(CC(=O)OCC)C(=O)NC2CCCCC21 (stereo not drawn) > 76.9 µM
CCC1Oc2ccc(C)cc2N(CC(=O)N(Cc2cccnc2)Cc2ccc(C)o2)C1=O (stereo not drawn)
CCN(CC)c1ccc(NC(=O)CN2CCN(c3nc(C)cc(C)n3)CC2)cc1 > 76.9 µM
CN(C)S(=O)(=O)c1ccc(NC(=O)c2ccccn2)cc1 > 76.9 µM
O=C(CN(CCc1ccccc1)C(=O)CNS(=O)(=O)c1ccc(F)cc1)NCc1ccco1 > 76.9 µM
COc1ccc(C(=O)N2CCC(C(=O)Nc3ccccc3OC)CC2)cc1 > 76.9 µM
COc1ccc(-c2nc(N)n(C(C)=O)n2)cc1 > 76.9 µM
Cc1ccc(CNC(=O)CCCn2c(=O)c3ccccc3n(CC(=O)NCc3ccco3)c2=O)cc1 > 76.9 µM
Clc1ccc(Cc2noc(Cc3ccccc3)n2)cc1Cl > 76.9 µM
CCOC(=O)CNC(=O)CSc1nnc(COc2ccc(Cl)cc2)n1CC > 76.9 µM
COc1ccc(-c2nnc3sc(C4CCCCC4)nn23)cc1OC > 76.9 µM
COc1ccc(C2/C(=C(/O)c3ccccc3)C(=O)C(=O)N2CC(C)O)c(OC)c1 (stereo not drawn) > 76.9 µM
O=C(O)[C@H](Cc1ccccc1)N1C(=O)c2ccncc2C1=O > 76.9 µM
CC(=O)c1cc2c(cc1NC(=O)CSc1nc3ccccc3o1)OCO2 > 76.9 µM
COc1ccccc1N(CC(O)CN(c1ccccc1)S(C)(=O)=O)S(=O)(=O)c1ccccc1 (stereo not drawn) > 76.9 µM
CCOC(=O)C1=C(N)n2c(s/c(=C\c3ccco3)c2=O)=C(C(=O)OCC)C1c1ccco1 (stereo not drawn) > 76.9 µM
CC(=O)Nc1nc(C(=O)Nc2c(C)n[nH]c2C)cs1 > 76.9 µM
Cc1ccc(CNC(=O)Cn2ccc3ccccc3c2=O)o1 > 76.9 µM
O=C(O)CSC1CC(=O)N(c2ccc(Cl)cc2)C1=O (stereo not drawn) > 76.9 µM
Cc1nc2ccccn2c1C(=O)NCc1cccnc1 > 76.9 µM
CCOc1ccc(OCC)c(NC(=O)CN2CCN(c3ccc(C)cc3C)CC2)c1 > 76.9 µM
Cn1c2ccccc2c2c(C(=O)NCC3CCCO3)cn(C3CCCC3)c(=O)c21 (stereo not drawn) > 76.9 µM
CC(C)CCNC(=O)CN(C(=O)Cn1nnc(-c2ccc(F)cc2)n1)C1CCCC1 > 76.9 µM
O=C(NCCCN1CCCC1=O)c1ccc2c(c1)OCO2 > 76.9 µM
CCc1ccc(NC(=O)N(CCCOC(C)C)C2CCN(C(C)=O)CC2)cc1 > 76.9 µM
Cc1ccccc1CS(=O)(=O)Cc1ccc(C(=O)NCc2cccnc2)o1 > 76.9 µM
O=c1cc[nH]c2cccc(Cc3ccccc3)c12 > 76.9 µM
